{
  "sequences": {"note": "By UniProt entry, the sequences of proteins in these tests, tags left out.", "UniProt P62136": "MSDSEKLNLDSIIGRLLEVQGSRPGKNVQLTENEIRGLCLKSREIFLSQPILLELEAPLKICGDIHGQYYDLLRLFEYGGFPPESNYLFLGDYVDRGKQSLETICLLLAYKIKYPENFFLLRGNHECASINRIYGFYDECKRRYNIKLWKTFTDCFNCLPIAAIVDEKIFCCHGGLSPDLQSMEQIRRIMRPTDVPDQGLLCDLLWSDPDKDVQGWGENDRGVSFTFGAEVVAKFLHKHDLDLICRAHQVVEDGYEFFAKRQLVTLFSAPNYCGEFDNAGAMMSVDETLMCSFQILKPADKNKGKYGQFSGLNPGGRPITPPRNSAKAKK"},
  "source": "paper PMC5437018",
  "binders": {"B1": {"name": "Rif1 CRI (residues 2093–2190), purified, wild type (domain or fragment, UniProt Q6PR54 2093-2190)", "chain": "TSPEKLELDSFGSVNESPSGMQQARCVWSPLASPSTSILKRGLKRSQEDEISPVNKIRRVSFADPIYQAGLADDIDRRCSVVRSHSSNSSPIIKSVKT"}},
  "molecular_target": "Recombinant purified α-isoform of mammalian PP1 (residues 1–330), tag cleaved (mammalian) (UniProt P62136)",
  "assay": "NMR titration; 1H-15N HSQC spectra of 15N-labelled CRI alone and in the gel-filtration-purified complex with unlabelled PP1; 50 mM sodium phosphate, 200 mM NaCl, 1 mM DTT, pH 6.8, 10 °C; both purified",
  "note": "No constants are given. Whether binding was seen depends on the method and setting. Some entries that bind do so weakly or less than the wild type.",
  "data": [
    {"binder": "B1", "values": [
      {"measurement": "binding", "result": "binds"}
    ]}
  ]
}
